Assay [1] has as its system Colletotrichum orbiculare. Particulars: 250 ppm sprayed (2.5 ml/pot) before inoculation; assessed 6 to 10 days after inoculation.
Assay [2] has as its system Phytophthora infestans. In kind it is in vivo. The settings on record: Table 7, Test F.
Assay [3] relates to Magnaporthe grisea. It is filed as in vivo. The settings on record: Table 7, Test A.

The results in this text go back to US11178870B2 (priority 2017, dated 2021).

For `CCn1c(-c2c(F)cccc2F)c(-n2cc(F)cn2)cc(Br)c1=O` [Compound 320], the “control value, Test H (anthracnose on cucumber)” value (“control value, Test H” for short) in assay [1] is reported as “H (H shows the control value more than 50%)”. In addition, the “control value, Test F (late blight on tomato)” value (from here on “control value, Test F”) in assay [2] was “L (L shows the control value of 50% or less)”.

For the molecule `O=c1ccc(-c2cc(Br)sc2Br)c(-c2c(F)cccc2F)n1CC(F)F` [Compound 324], the “control value, Test A (blast on rice)” value in assay [3] was “L (L shows the control value of 50% or less)”. Besides, the “control value, Test H” value in assay [1] is “H (H shows the control value more than 50%)”. In addition, in assay [2], the “control value, Test F” value is given as “L (L shows the control value of 50% or less)”.

As for `CCn1c(-c2ccc(F)cc2Br)c(-n2cc(F)cn2)cc(Cl)c1=O` [Compound 352], the “control value, Test A (blast on rice)” value in assay [3] was “H (H shows the control value more than 50%)”. For the same molecule, the “control value, Test F” value in assay [2] is recorded as “L (L shows the control value of 50% or less)”.

As to `Cc1cnn(-c2cc(Br)c(=O)n(CC(F)F)c2-c2ccc(F)cc2Cl)c1Cl` [Compound 345], the “control value, Test A (blast on rice)” value in assay [3] is on record as “H (H shows the control value more than 50%)”. Besides, in assay [1], the “control value, Test H” value is “H (H shows the control value more than 50%)”. Also, the “control value, Test F” value in assay [2] is on record as “L (L shows the control value of 50% or less)”.
